PubChem BioAssay AID504832 (National Center for Advancing Translational Sciences (NCATS), 2011)
In all, about 310,000 compounds went through this assay and about 18,000 (5.8%) were called active. The inconclusive results got no clear call from the source; some entries with a clear call stand among them for comparison. Calls come from the whole dose curve; as a rule, active = well fitted inhibition curve with a large enough effect; inconclusive = small, poorly fitted or top-dose-only effect, or another doubt; inactive = no such curve, though single readings can be large or run the other way. Potencies of inconclusive entries are left out as doubtful fits.

test: Primary qHTS for delayed death inhibitors of the malarial parasite plastid, 48 hour incubation; details: P. falciparum luciferase growth in erythrocytes; series mostly up to 28.7 µM; activity change, negative = inhibition: at the top concentration
In short: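 A one-generation exposure of luciferase-tagged malaria parasites in RPMI 1640/Albumax erythrocyte culture, 37 C and 5% CO2. Inhibition is inferred from decreased luminescence after adding detection reagent.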
% is set by controls: 0 for no effect and ±100 for the full control effect; potency is the fitted concentration of half-maximal effect; tags give direction and shape of the fitted curve.

Row | Structure (SMILES) | activity change, negative = inhibition | Potency
1 | CCCc1ccc2oc(C(=O)N3CCCC3)c(C)c2c1 | inactive: 73.2% | –
2 | CC(=O)c1cn(CC(=O)Nc2c(C)cccc2C)c2ccccc12 | inactive: 7.79% | –
3 | CN(C)S(=O)(=O)c1cccc(NC(=O)C(c2ccccc2)c2ccccc2)c1 | – | inconclusive [inhibitor, single point]
4 | CCOC(=O)c1c2n(c3c(NCc4ccccc4)ncnc13)CCCC2 | – | inconclusive [inhibitor, partial curve]
5 | O=C(Nc1ccc(N2CCCCC2)cc1)c1ccc([N+](=O)[O-])o1 | inactive: -23.3% | –
6 | Cc1cccc(Nc2c([N+](=O)[O-])c(=O)oc3ccccc23)c1 | – | inconclusive [inhibitor, partial curve, poor fit]
7 | CC(C)(C)N1C(=O)[C@H]2[C@@H](c3ccc(Br)cc3)N3C(=O)N(c4ccccc4)C(=O)[C@@]3(Cc3ccccc3)[C@H]2C1=O | – | inconclusive [inhibitor, single point]
8 | COc1ccc(N(C)C(=O)c2cc3c(s2)-c2ccccc2OC3)c(OC)c1 | – | inconclusive [inhibitor, single point]
9 | CCc1ccc2c(c1)C1(C(=O)N2)N2CCCC2C(C(=O)c2ccc3ccccc3c2)C12C(=O)Nc1ccccc12 (stereo not given) | – | inconclusive [inhibitor, partial curve, poor fit]
10 | O=C(c1cccc(S(=O)(=O)Nc2ccc(F)cc2)c1)N1CCCC1 | – | inconclusive [inhibitor, single point]
11 | COc1ccc(OCC(=O)N2CCN(c3nnc(-c4ccc(C)cc4)c4ccccc34)CC2)cc1 | – | inconclusive [inhibitor, partial curve]
12 | COc1cccc(C(C)NC(=O)Nc2cc(Cl)ccc2OC)c1 (stereo not given) | – | inconclusive [inhibitor, partial curve, poor fit]
13 | O=[N+]([O-])c1ccc(N/N=C2/CCCCC2c2ccccn2)cc1 (stereo not given) | inactive: -11.7% | –
14 | O=C(CSc1nnc(CNc2ccc(F)cc2)n1CC1CCCO1)Nc1ccccc1 (stereo not given) | – | inconclusive [inhibitor, single point]
15 | C=CCC1(CC=C)CCCN1C(=O)CC1C(=O)NCCN1Cc1ccccc1OC (stereo not given) | – | inconclusive [inhibitor, single point]
16 | CCOC(=O)C1CCN(C(c2cccnc2)c2c(NC(=O)c3ccco3)sc(C)c2C)CC1 (stereo not given) | – | active: 0.294 µM
17 | CN(Cc1nccs1)C(=O)c1ccc(OC2CCN(CCc3ccccc3)CC2)cc1 | – | inconclusive [inhibitor, single point]
18 | CCN(C(=O)COC(=O)/C(=C/c1ccccc1)n1nnnc1C)C1CCCCC1 | – | inconclusive [inhibitor, partial curve, poor fit]
19 | COc1cc(Br)c(CCNC(=O)Cc2ccccc2)cc1OC | – | inconclusive [inhibitor, partial curve, poor fit]
20 | COc1ccc(Nc2cc(C)nc3ccc(OC)cc23)cc1 | – | inconclusive [inhibitor, single point]
21 | Cc1ccc(C)c(NC(=O)CSc2nnc(CNC(=O)c3cccs3)o2)c1 | – | inconclusive [inhibitor, full curve, poor fit]
22 | CC(=O)NC(CC(=O)Nc1ccc(S(=O)(=O)N2CCCC2)cc1)c1ccccc1 (stereo not given) | – | inconclusive [inhibitor, single point]

Row | Structure (SMILES) | activity change, negative = inhibition | Potency
23 | Cc1ccc(-c2nc(NCc3cccnc3)c3ccccc3n2)cc1 | – | inconclusive [inhibitor, single point]
24 | CCOc1ccc(-c2cc(CCCC(=O)NCCc3ccc(OC)c(OC)c3OC)no2)cc1 | – | inconclusive [inhibitor, partial curve, poor fit]
25 | Cc1cccc(N(CC(=O)NCc2ccc(F)cc2)C(=O)c2ccco2)c1 | inactive: 7.66% | –
26 | CC(=O)c1ccc(N2CCN(C(=O)Nc3ccc(F)cc3F)CC2)cc1 | – | inconclusive [inhibitor, single point]
27 | COc1ccc(NC(=O)c2cccc(Cn3cc(Br)cn3)c2)cn1 | – | inconclusive [inhibitor, single point]
28 | COc1cccc(NC(=O)NC(C)C2CC3CCC2C3)c1 (stereo not given) | – | inconclusive [inhibitor, single point]
29 | COC(=O)c1[nH]c2cccc(OC)c2c1NC(=O)CCN1CCN(c2cccc(Cl)c2)CC1 | – | inconclusive [inhibitor, partial curve]
30 | COc1cc(C(CCN2CCCC2)c2c(OC)cc(OC)c3c(-c4ccccc4)cc(=O)oc23)cc(OC)c1OC (stereo not given) | – | active: 2.33 µM
31 | CCOC(=O)C1=C(COC(=O)c2ccc(OC(C)C)cc2)NC(=O)NC1C (stereo not given) | – | inconclusive [inhibitor, partial curve, poor fit]
32 | O=C(O)c1cccc([N+](=O)[O-])c1C(=O)Nc1cccc2ccccc12 | inactive: -6.72% | –
33 | CCn1cc([N+](=O)[O-])c(C(=O)N2N=C(c3ccccc3)CC2c2ccc([N+](=O)[O-])cc2)n1 (stereo not given) | – | active: 13.1 µM
34 | Cc1ccc2c(c1)c1ncn(Cc3ccc(F)cc3)c(=O)c1n2C | – | inconclusive [inhibitor, partial curve]
35 | CC(C)CC1=NN(C(=O)c2ccncc2)C(O)(C(F)(F)F)C1 (stereo not given) | inactive: 23.9% | –
36 | COC(=O)C1=CN(Cc2ccc(F)cc2)C=C(C(=O)OC)C1c1cc(OC)c(OC)c(OC)c1 | – | active: 1.31 µM
37 | CCOC(=O)c1cnc(-n2nc(C)cc2C)nc1N(C)C | – | inconclusive [inhibitor, full curve, poor fit]
38 | COc1ccc(N=C2C(=Nc3ccc(OC)cc3)N(c3ccc(N(C)C)cc3)C(=S)N2c2ccc(OC)cc2)cc1 | inactive: 4.92% | –
39 | Cc1cc(C)n(-c2ccc(C(=O)N3CCN(S(=O)(=O)c4ccc(Cl)cc4)CC3)cc2)n1 | – | active: 10.4 µM
40 | O=C(CSc1ccc2nnc(-c3ccccn3)n2n1)Nc1ccc(F)cc1F | – | inconclusive [inhibitor, single point]
41 | O=C(NCc1ccco1)C(=O)NCC1OCCCN1S(=O)(=O)c1ccccc1 (stereo not given) | inactive: -5.3% | –
42 | O=C(c1csc2c1CCCCC2)N1CCC2(CC1)OCCO2 | – | inconclusive [inhibitor, full curve, poor fit]
43 | Clc1cc(Sc2ccc(Br)cc2)nnc1-c1ccccc1 | – | inconclusive [inhibitor, single point]
44 | Cc1ccc(S(=O)(=O)N2CCC(C(=O)NCCN3CCCCCC3)CC2)cc1 | – | active: 11.7 µM

Row | Structure (SMILES) | activity change, negative = inhibition | Potency
45 | C/C(=N\NC(=S)NC1CCCCC1)c1ccc(OC(F)F)cc1OC(F)F | – | inconclusive [inhibitor, partial curve, poor fit]
46 | CCC(C)c1ccc(S(=O)(=O)N2CCN(C(C)C(=O)NC3CCCC3)CC2)cc1 (stereo not given) | – | inconclusive [inhibitor, single point]
47 | CCCOc1ccc(C(=O)Nc2ccc(S(=O)(=O)N3CCN(C)CC3)cc2)cc1 | – | inconclusive [inhibitor, partial curve]
48 | Cc1cc(C(=O)NCC(=O)OCC(=O)N2CCCCCC2)ccc1[N+](=O)[O-] | inactive: 7.37% | –
49 | O=C(COC(=O)/C=C/c1ccccc1[N+](=O)[O-])NNC(=O)c1ccc(F)cc1 | inactive: 10.8% | –
50 | COc1ccc(CN(CCC(c2ccco2)C(C)C)C(C)=O)cc1OC (stereo not given) | – | inconclusive [inhibitor, partial curve, poor fit]
51 | CC(=O)c1ccc(N2CCN(CC(=O)Nc3ccccc3C(=O)NC3CC3)CC2)c(F)c1 | – | inconclusive [inhibitor, partial curve]
52 | CN(C)c1ccc(NC(=S)N(CCc2ccccc2)C2CC(=O)N(c3c(Cl)cccc3Cl)C2=O)cc1 (stereo not given) | – | inconclusive [inhibitor, single point]
53 | COc1ccc(-c2csc(NC(=O)c3c(OC)cccc3OC)n2)cc1 | – | active: 5.86 µM
54 | O=C(c1ccco1)N1CCN(CC(=O)N2CCCc3c2c(=O)oc2ccc(O)cc32)CC1 | inactive: -1.11% | –
55 | O=[N+]([O-])c1ccc(O)c(CSc2nnnn2-c2ccccc2)c1 | inactive: -13.7% | –
56 | CCC(=O)c1ccc(N2CCN(C(=O)COc3ccc(F)cc3)CC2)c(F)c1 | – | inconclusive [inhibitor, partial curve, poor fit]
57 | O=C(Nc1ccc2nsnc2c1)C1CC1 | inactive: 69.1% | –
58 | CCn1nnnc1NCc1ccc(N2CCCC2)cc1 | – | inconclusive [inhibitor, single point]
59 | Cc1ccc([C@@H]2C3COCC=C3C(C#N)=C(N)C2(C#N)C#N)o1 (stereo not given in full) | – | inconclusive [inhibitor, partial curve, poor fit]
60 | Cc1ccc(S(=O)(=O)N2CCN(c3ccnc4cc(Cl)ccc34)CC2)cc1C | – | inconclusive [inhibitor, single point]
61 | COc1ccc(C2=CC(=O)C[C@H](c3ccc(OC)c(OC)c3)C2)cc1 | – | inconclusive [inhibitor, single point]
62 | Cc1ccc2c(c1)N(C(=O)CCC(=O)NCc1ccccn1)CC(C)O2 (stereo not given) | – | inconclusive [inhibitor, partial curve, poor fit]
63 | CCN(CC)S(=O)(=O)c1ccc(C2=NOC3(C2)N(C)c2ccccc2C3(C)C)cc1 (stereo not given) | – | active: 11.7 µM
64 | CN1C(=O)c2ccccc2N(C)C1c1ccc2c(c1)OCO2 (stereo not given) | – | active: 10.4 µM
65 | COCCn1c(C)cc(C2=NNC(=Nc3ccc(F)cc3)SC2)c1C | – | inconclusive [inhibitor, single point]
